In PMC4336329 (PLoS ONE, 2015):
The whole screen tested about 310,000 compounds, of which about 14,000 (4.5%) showed an effect of 50% or more. The effect is printed as a negative number. The list shows a part of the results.

The compounds below were run against human ether-à-go-go-related gene (hERG) potassium channel (human, UniProt Q12809) (assay: primary screen, population patch clamp on CHO cells stably expressing hERG).
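Also: peak tail current of the secondary pulse compared with the same well before compound.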

Chain of human ether-à-go-go-related gene (hERG) potassium channel (Q12809 whole entry, looked up): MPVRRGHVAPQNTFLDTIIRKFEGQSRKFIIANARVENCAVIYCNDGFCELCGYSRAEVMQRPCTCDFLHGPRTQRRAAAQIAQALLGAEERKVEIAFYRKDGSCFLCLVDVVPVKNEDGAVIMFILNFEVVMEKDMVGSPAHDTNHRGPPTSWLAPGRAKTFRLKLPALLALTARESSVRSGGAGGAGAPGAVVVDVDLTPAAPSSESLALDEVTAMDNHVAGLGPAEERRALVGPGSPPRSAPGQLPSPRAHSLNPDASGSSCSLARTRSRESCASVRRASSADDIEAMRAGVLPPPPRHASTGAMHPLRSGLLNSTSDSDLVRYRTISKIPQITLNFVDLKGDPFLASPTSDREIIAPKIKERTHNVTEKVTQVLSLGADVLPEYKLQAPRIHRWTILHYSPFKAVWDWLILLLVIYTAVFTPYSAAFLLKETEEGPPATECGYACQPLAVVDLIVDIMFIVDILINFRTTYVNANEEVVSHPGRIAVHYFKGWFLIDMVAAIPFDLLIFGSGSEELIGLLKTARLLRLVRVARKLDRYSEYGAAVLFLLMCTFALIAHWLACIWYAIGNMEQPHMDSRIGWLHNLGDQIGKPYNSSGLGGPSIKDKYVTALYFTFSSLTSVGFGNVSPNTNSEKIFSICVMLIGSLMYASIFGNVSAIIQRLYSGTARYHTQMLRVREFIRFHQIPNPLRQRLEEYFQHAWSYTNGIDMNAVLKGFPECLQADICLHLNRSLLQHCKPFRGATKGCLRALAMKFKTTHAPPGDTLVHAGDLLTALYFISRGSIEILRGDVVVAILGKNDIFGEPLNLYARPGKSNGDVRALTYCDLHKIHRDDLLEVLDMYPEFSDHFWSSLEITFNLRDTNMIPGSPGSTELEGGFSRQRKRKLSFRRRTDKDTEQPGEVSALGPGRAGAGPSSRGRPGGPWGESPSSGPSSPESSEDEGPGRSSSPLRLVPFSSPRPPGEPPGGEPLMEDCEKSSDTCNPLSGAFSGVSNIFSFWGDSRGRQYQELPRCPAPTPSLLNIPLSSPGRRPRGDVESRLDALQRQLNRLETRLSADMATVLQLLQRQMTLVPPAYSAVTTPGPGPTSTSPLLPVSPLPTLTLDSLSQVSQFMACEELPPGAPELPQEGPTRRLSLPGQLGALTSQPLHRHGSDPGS

Row | SMILES | hERG current change (%, negative = inhibition) at 10uM [%]
1 | Cc1cc(SCC(=O)c2ccccc2)nc(SCC(=O)c2ccccc2)n1 | 9.35
2 | CN1CCC2(CC1)NC(=O)C1=C(CN(C)CC1)N2 | 17.7
3 | CCOC(=O)N1CCN(CC(O)COc2ccc(CC)cc2)CC1.Cl (stereo not drawn) | -31.2
4 | Cc1cccc(-c2nnc(SCC(=O)Nc3nc4c(s3)CCCC4)n2C)c1 | -37.3
5 | Cc1ccc2c(n1)sc1c(N)ncnc12 | 21.2
6 | Cc1ccc(S(=O)(=O)N2CCC(=O)N(C(COCc3ccc(Cl)cc3)C(C)C)CC2)cc1 (stereo not drawn) | -51.7
7 | COCCN1CCN(Cc2nc(Cc3ccc(OC)c(OC)c3)no2)CC1 | 3.84
8 | Cc1ccc(/C(N)=N/OC(=O)N2c3ccccc3Sc3ccccc32)cc1 | 4.81
9 | COC(=O)C1=C(c2ccc3ccccc3c2)C[C@@H]2CC[C@H]1N2C(=O)NCCNC(C)=O | 12.5
10 | C=CCNC(=O)CCCc1ccccc1 | 7.65
11 | O=C(CS(=O)(=O)c1ccc(F)cc1)NCCS(=O)(=O)c1ccccc1 | 17.6
12 | O=S(=O)(Nc1ccn(-c2ccccc2)n1)c1ccc(Br)cc1 | 12.4
13 | COC(=O)c1ccc(N2CCN(C)CC2)c(NC(=O)c2sc3ccccc3c2Cl)c1 | 13.1
14 | COc1ccc(CCNC(=O)COC(=O)c2ccccc2NCCO)cc1OC | 12.5
15 | COc1cccc(NC(=S)N2CCn3c(nc4ccccc43)C2)c1 | -15.4
16 | C=CCN1C(=O)/C(=C2/Sc3ccccc3N2CCCS(=O)(=O)O)SC1=S.c1ccncc1 | -1.91
17 | C=C(C)CSc1cc(C)nc2c(-c3ccccc3)c(C)nn12 | -5.72
18 | Cc1cnc(C(=O)Nc2nnc(SCc3c(Cl)cccc3Cl)s2)cn1 | -1.75
19 | Cc1ccc(N(C(=O)CS(=O)CC(=O)Nc2ccc(F)cc2)C(C)C(=O)NC(C)(C)C)cc1 (stereo not drawn) | 13.4
20 | Cc1ccc(-n2nnnc2SCC(=O)N2CCc3ccccc3C2)c(C)c1 | -16.9
21 | Cc1c(/C=N/NC(=O)C2(O)c3ccccc3-c3ccccc32)cnn1C | 9.98
22 | COc1ccc(CC2(CO)CCN(S(=O)(=O)c3c(C)nn(C)c3Cl)CC2)cc1 | 14.7
23 | CCS(=O)(=O)N1CCN=C1SCc1ccc(F)cc1 | -1.6
24 | COc1ccccc1C(=O)O/N=C(\N)c1ccccn1 | 16.1
